{
  "source": "PubChem BioAssay AID686978",
  "about": "(National Center for Advancing Translational Sciences (NCATS), 2013)",
  "note": "“And” between values parts separate entries of the source, which are not always exact repeats. Equal values may be shown once. Among all 420,000 compounds or so, about 64,000 (15%) were called active. The shares of active, inactive and inconclusive entries below differ from those in the screen. Calls come from the whole dose curve; as a rule, active = well fitted inhibition curve with a large enough effect; inconclusive = small, poorly fitted or top-dose-only effect; inactive = flat fitted curve, though single readings scatter. Where the call is inconclusive, the potency comes from a doubtful curve fit. % is set by controls: 0 for no effect and ±100 for the full control effect; potency is the fitted concentration of half-maximal effect; tags give direction and shape of the fitted curve.",
  "data": [
    {"assay": "qHTS for Inhibitors of human tyrosyl-DNA phosphodiesterase 1 (TDP1): qHTS in cells in absence of CPT; note: nearly all actives have a fitted effect of over 55% in size", "conditions": "DT40 Tdp1-/- hTDP1 cells, no CPT, ATP luminescence, 48 h; activity change, negative = growth inhibition: at 46.2 µM (top of the series)", "in_short": "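DT40 Tdp1-/-;hTDP1 cells, no CPT (DMSO vehicle only), 400 cells/well; compounds pin-transferred; ≥48 hr, 37 °C; CellTiter-Glo 30 min RT dark, luminescence read.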", "values": [
      {"compound": "CCN(CC(=O)Nc1ccc(Br)cc1)CC(=O)Nc1cc(C)on1", "Potency": "inconclusive: 29.1 µM [inhibitor, single point]"},
      {"compound": "O=C(N/N=C/c1cc(Cl)ccc1O)c1ccccc1Br", "Potency": "active: 6.51 µM"},
      {"compound": "Cn1nc(C(=O)N2CCN(c3cccc(Cl)c3)CC2)c2c1-c1ccccc1S(=O)(=O)C2", "Potency": "inconclusive: 29.1 µM [inhibitor, single point] and inconclusive: 14.6 µM [inhibitor, partial curve]"},
      {"compound": "CCOc1ccc2[nH]c3nc(SCC(=O)NC4CCCC4)nnc3c2c1", "Potency": "active: 6.51 µM"},
      {"compound": "Cc1cc2c(SCC(=O)NC3CCCC3)ncnc2s1", "Potency": "inactive"},
      {"compound": "CCN(CC)CCC(=O)N1c2ccccc2Sc2ccc(NC(=O)OC)cc21", "Potency": "inactive"},
      {"compound": "Cn1c(=O)c(N)c2c3c(c(Br)ccc31)C(=O)c1ccccc1-2", "Potency": "inconclusive: 18.4 µM [inhibitor, single point]"},
      {"compound": "O=C(Nc1ccccc1)Nc1nncs1", "Potency": "inconclusive: 9.2 µM [inhibitor, single point]"},
      {"compound": "CC(C)CN(C(=O)COC(=O)CCSc1ccc(F)cc1)c1c(N)n(Cc2ccccc2)c(=O)[nH]c1=O", "Potency": "inconclusive: 23.1 µM [inhibitor, single point]"},
      {"compound": "CSc1nc(N)nc2c1ncn2CC(=O)NCC(c1ccccc1)c1ccccc1", "Potency": "active: 20.6 µM"},
      {"compound": "CCC(C)CN1C(=O)CN(S(C)(=O)=O)CC1(C)C(=O)Nc1c(C)cccc1C", "note": "(stereo not given)", "Potency": "inactive"},
      {"compound": "CCOc1ccccc1CN1C(=O)NC(C)(c2ccccc2)C1=O", "note": "(stereo not given)", "Potency": "inconclusive: 29.1 µM [inhibitor, single point]"},
      {"compound": "CCC1(c2ccc(OC)cc2)NC(=O)N(CC(=O)c2ccc3c(c2)OCCO3)C1=O", "note": "(stereo not given)", "Potency": "inconclusive: 25.9 µM [inhibitor, single point]"},
      {"compound": "O=C(NN1C(=O)C2C3C=CC(C3)C2C1=O)C(O)c1ccccc1", "note": "(stereo not given)", "Potency": "inactive"},
      {"compound": "Cc1ccc2nc(SCC(=O)c3ccc(O)cc3O)[nH]c2c1", "Potency": "inconclusive: 11.6 µM [inhibitor, partial curve]"},
      {"compound": "Cc1ccccc1C(=O)N1CCN(c2ccc(NC(=O)c3ccc4c(c3)OCO4)cc2)CC1", "Potency": "active: 13 µM"},
      {"compound": "CCn1c(SCC(=O)Nc2ccccc2N2CCOCC2)nnc1-c1ccccc1O", "Potency": "inconclusive: 14.6 µM [inhibitor, partial curve, poor fit]"},
      {"compound": "CCS(=O)(=O)N1CCc2cc(C(=O)Nc3ccc(C)c(Cl)c3)ccc21", "Potency": "active: 13 µM"},
      {"compound": "Cc1ccc(NC(=S)NCc2ccccc2)cc1[N+](=O)[O-]", "Potency": "inconclusive: 29.1 µM [inhibitor, single point]"},
      {"compound": "Cc1ccc(OC(C)C(=O)Nc2ccccc2C(=O)NCc2cccnc2)cc1C", "note": "(stereo not given)", "Potency": "inactive"},
      {"compound": "CN(C)c1ccc(-c2n[nH]c(=S)n2-c2ccccc2)cc1", "Potency": "inactive"},
      {"compound": "O=C(Nc1nnc(S(=O)(=O)N2CCOCC2)s1)c1cccc(F)c1", "Potency": "inconclusive: 18.4 µM [inhibitor, single point]"},
      {"compound": "CCS(=O)(=O)c1nc2ccccc2n1Cc1ccccc1Cl", "Potency": "inconclusive: 29.1 µM [inhibitor, single point]"},
      {"compound": "CCOC(=O)C1CCN(C2CCN(C(=O)c3oc4c(F)cccc4c3C)CC2)CC1", "Potency": "inconclusive: 18.4 µM [inhibitor, single point]"},
      {"compound": "COC(=O)C1(C(=O)OC)C(C(=O)c2ccccc2)C1c1ccccc1", "note": "(stereo not given)", "Potency": "inactive"},
      {"compound": "CCOc1cccc2sc(N(CCN(CC)CC)C(=O)c3ccc(S(=O)(=O)N4CCCC4)cc3)nc12", "Potency": "inconclusive: 29.1 µM [inhibitor, single point]"},
      {"compound": "COc1ccc(CNC(=O)[C@H](C)NC(=O)[C@@H]2Cc3ccccc3CN2)cc1", "Potency": "inactive"},
      {"compound": "Cc1cc(=O)oc2cc(OCC(=O)Nc3ccc4[nH]c(=O)[nH]c4c3)ccc12", "Potency": "inactive"},
      {"compound": "O=C(N/N=C/c1ccccn1)c1ccccc1", "Potency": "active: 18.4 µM"},
      {"compound": "CCC(C)[C@H](NC(=O)OC(C)(C)C)c1nnc(SCc2c(C)[nH]c(=O)[nH]c2=O)o1", "note": "(stereo not given in full)", "activity change, negative = growth inhibition": "inconclusive: -31.5% [inhibitor]"},
      {"compound": "O=C(COC(=O)c1ccc(S(=O)(=O)NCc2ccco2)cc1)NCc1ccc(F)cc1", "Potency": "inactive"},
      {"compound": "COc1ccc(C(=O)Cn2cnc3ccccc3c2=O)cc1OC", "Potency": "inconclusive: 4.61 µM [inhibitor, partial curve, poor fit]"},
      {"compound": "Cc1sc(NC(=O)c2ccco2)c(C(c2cccnc2)N2CCN(C)CC2)c1C", "note": "(stereo not given)", "Potency": "active: 11.6 µM"},
      {"compound": "CC(C)C(NS(=O)(=O)c1cccs1)C(=O)NCc1ccccc1", "note": "(stereo not given)", "Potency": "inactive"},
      {"compound": "O=C(CSc1nnc(NC(=O)c2ccccc2[N+](=O)[O-])s1)NCC1CCCO1", "note": "(stereo not given)", "Potency": "inconclusive: 23.1 µM [inhibitor, single point]"},
      {"compound": "CCOc1ccc(CC2S/C(=N/c3ccccn3)NC2=O)cc1", "note": "(stereo not given)", "activity change, negative = growth inhibition": "inconclusive: -31.2% [inhibitor]"},
      {"compound": "Cc1cccc(CCNC(=O)Cn2ncc3c(=O)oc4ccccc4c32)c1", "Potency": "inactive"},
      {"compound": "Cc1ccc2c(c1)C(c1ccccc1)N(C(=O)c1ccc(OC(C)C)cc1)CC(=O)N2", "note": "(stereo not given)", "Potency": "inconclusive: 25.9 µM [inhibitor, single point]"},
      {"compound": "COc1ccc(C(CNC(=O)C2CC(=O)N(Cc3ccccc3)C2)N2CCOCC2)cc1", "note": "(stereo not given)", "Potency": "inactive"},
      {"compound": "CCOC(=O)C1CCN(c2nc(-c3ccc(Br)cc3)nc3ccccc23)CC1", "Potency": "active: 4.11 µM"},
      {"compound": "O=C(Nc1ccccc1)c1nn(-c2ccccc2)c(=O)cc1C(F)(F)F", "Potency": "inactive"},
      {"compound": "O=C(c1ccccc1)N(CCCl)C(=O)N(CCCl)C(=O)c1ccccc1", "Potency": "inconclusive: 18.4 µM [inhibitor, single point]"},
      {"compound": "O=C(CSc1nnc(-c2ccccc2O)o1)N1CCc2ccccc2C1", "Potency": "inconclusive: 31.6 µM [inhibitor, single point]"},
      {"compound": "CC(=O)Nc1ccc(S(=O)(=O)Nc2ccc(Cl)nn2)cc1", "Potency": "inactive"},
      {"compound": "C=CCNC(=S)NN=C1CCC(c2ccccc2)CC1", "note": "(stereo not given)", "Potency": "inactive"},
      {"compound": "Cc1nnc(SCC(=O)Nc2cccc(S(=O)(=O)N3CCCCC3)c2)s1", "Potency": "inconclusive: 29.1 µM [inhibitor, single point]"},
      {"compound": "COc1ccc(C(=O)Nc2ccc(-c3cc4ccccc4oc3=O)c(C)c2)cc1Br", "Potency": "inconclusive: 20.6 µM [inhibitor, partial curve]"},
      {"compound": "Cc1ccc(C)c(N2CCN(C(=O)CCCn3ncn4c(cc5occc54)c3=O)CC2)c1", "Potency": "inconclusive: 25.9 µM [inhibitor, single point] and inconclusive: 29.1 µM [inhibitor, single point]"},
      {"compound": "O=c1c(-c2cc(O)c(O)c(O)c2)coc2cc(O)c(O)c(O)c12", "Potency": "inconclusive: 29.1 µM [inhibitor, single point]"},
      {"compound": "COc1ccc(-c2csc(NC(=O)CSCC(=O)Nc3cc(C)on3)n2)cc1", "Potency": "active: 23.1 µM"},
      {"compound": "C=CCn1c(SCC(=O)c2[nH]c(C)c(C(=O)OCC)c2C)nc2scc(-c3ccccc3)c2c1=O", "Potency": "active: 16.4 µM"},
      {"compound": "CCOc1ccc(CN(C)Cc2cc(=O)oc3c(C)c(C)ccc23)cc1OC", "Potency": "active: 8.2 µM"},
      {"compound": "CC(C)N1CCC1(C)C(=O)Nc1ccc2scnc2c1", "note": "(stereo not given)", "Potency": "inactive"},
      {"compound": "COc1cccc(CNC(=O)CCS(=O)(=O)c2cc3c(cc2C)NC(=O)CO3)c1", "Potency": "inactive"},
      {"compound": "CC(C)(C)OC(=O)NCCC(=O)N/N=C/c1ccc2ncccc2c1", "Potency": "inconclusive: 16.4 µM [inhibitor, single point]"},
      {"compound": "CCN(CCCNC(=O)c1nn(-c2ccc(C)cc2)c(=O)c2c1c1ccccc1n2C)c1ccccc1", "Potency": "inconclusive: 11.6 µM [inhibitor, partial curve]"},
      {"compound": "O=C(/C=C/c1ccc2c(c1)S(=O)(=O)N(Cc1ccccc1)[C@H]2CC(=O)N1CCOCC1)N1CCOCC1", "Potency": "inconclusive: 11.6 µM [inhibitor, partial curve]"},
      {"compound": "COc1cc(OC)nc(Oc2ccccc2C(=O)Oc2ccc(F)cc2Cl)n1", "Potency": "inactive"},
      {"compound": "COc1ccc(Cc2[nH]n3c(=O)c(Cl)c(C)nc3c2-c2ccccc2)cc1", "Potency": "inconclusive: 18.4 µM [inhibitor, single point]"},
      {"compound": "COc1cc(CNc2ncnc3c2ncn3[C@H]2CN(Cc3ccc(F)cc3)C[C@@H](CO)O2)cc(OC)c1OC", "Potency": "inconclusive: 29.1 µM [inhibitor, single point]"},
      {"compound": "Cc1ccc(C(=O)Nc2cccc(C(F)(F)F)c2)cc1NC(=O)c1c[nH]c2cc(C(F)(F)F)ccc2c1=O", "Potency": "inconclusive: 13 µM [inhibitor, partial curve]"},
      {"compound": "CC(C)/C(=N/Nc1ccccc1[N+](=O)[O-])c1ccccc1", "Potency": "inconclusive: 29.1 µM [inhibitor, single point]"},
      {"compound": "COc1ccccc1N(C(=O)CN1C(=O)c2ccccc2S1(=O)=O)C(C(=O)NCC1CCCO1)c1ccc(F)cc1", "note": "(stereo not given)", "Potency": "inconclusive: 29.1 µM [inhibitor, single point]"},
      {"compound": "Cc1cccn2c(=O)c(/C=C(\\C#N)C(=O)NC3CCS(=O)(=O)C3)c(N3CCC(C)CC3)nc12", "note": "(stereo not given)", "Potency": "inconclusive: 16.4 µM [inhibitor, partial curve]"},
      {"compound": "Cc1ccc(C)c(NC(=O)C2CCCN(c3cnccn3)C2)c1", "note": "(stereo not given)", "Potency": "inactive"},
      {"compound": "O=C(CN(C(=O)CCC(=O)Nc1nccs1)c1cccc(C(F)(F)F)c1)NCC1CCCO1", "note": "(stereo not given)", "Potency": "inconclusive: 0.411 µM [inhibitor, full curve, poor fit]"},
      {"compound": "CCc1ccccc1S(=O)(=O)Cc1ccc(C(=O)NCc2cccs2)o1", "Potency": "inconclusive: 14.6 µM [inhibitor, partial curve]"},
      {"compound": "O=C(/C=C/c1ccc(S(=O)(=O)N2CCOCC2)cc1)N1CCN(c2ccccc2)CC1", "Potency": "active: 1.03 µM"},
      {"compound": "COc1ccccc1CNc1ccc([N+](=O)[O-])cc1C", "Potency": "inconclusive: 23.1 µM [inhibitor, single point]"},
      {"compound": "CCCCC(=O)N=c1sc2c(OC)ccc(OC)c2n1C", "Potency": "inconclusive: 29.1 µM [inhibitor, single point]"}
    ]}
  ]
}
